This passage reports binding results from PMC6323126.

Holding throughout (assay): co-IP; HEK293FT cells transfected with tagged plasmids, lysed 24 h later in RIPA buffer; immunoprecipitation with indicated antibodies and Protein A/G beads; immunoblot
(A western blot detects proteins with antibodies after separation by electrophoresis.)

The target of assay [1] is T1, Flag-tagged STRN3 (wildtype, in cells) (human) (UniProt Q13033).
T1 sequence: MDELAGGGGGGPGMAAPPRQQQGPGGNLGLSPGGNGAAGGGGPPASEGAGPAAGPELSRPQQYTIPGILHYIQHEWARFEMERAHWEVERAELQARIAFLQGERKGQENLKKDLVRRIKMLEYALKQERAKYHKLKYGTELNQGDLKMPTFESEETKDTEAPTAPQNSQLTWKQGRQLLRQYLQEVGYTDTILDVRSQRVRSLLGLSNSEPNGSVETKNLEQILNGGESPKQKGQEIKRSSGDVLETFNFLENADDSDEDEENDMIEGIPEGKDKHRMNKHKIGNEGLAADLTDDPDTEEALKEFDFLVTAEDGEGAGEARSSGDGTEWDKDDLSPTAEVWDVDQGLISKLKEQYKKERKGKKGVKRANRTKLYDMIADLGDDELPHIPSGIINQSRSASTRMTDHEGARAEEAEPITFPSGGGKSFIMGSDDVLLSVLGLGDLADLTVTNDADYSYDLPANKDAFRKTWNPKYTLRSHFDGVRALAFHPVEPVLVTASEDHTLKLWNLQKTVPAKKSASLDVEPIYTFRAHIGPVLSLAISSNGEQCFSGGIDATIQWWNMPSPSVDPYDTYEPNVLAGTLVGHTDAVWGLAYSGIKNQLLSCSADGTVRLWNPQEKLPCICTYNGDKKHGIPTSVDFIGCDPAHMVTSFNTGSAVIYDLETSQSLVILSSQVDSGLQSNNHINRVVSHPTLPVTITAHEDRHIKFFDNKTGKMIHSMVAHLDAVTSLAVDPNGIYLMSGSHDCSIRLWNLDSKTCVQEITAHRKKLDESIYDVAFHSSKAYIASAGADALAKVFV

Assay [2] concerns the target T2, Flag-tagged STRN3 L179D/V186D (human) (UniProt Q13033).
T2 sequence: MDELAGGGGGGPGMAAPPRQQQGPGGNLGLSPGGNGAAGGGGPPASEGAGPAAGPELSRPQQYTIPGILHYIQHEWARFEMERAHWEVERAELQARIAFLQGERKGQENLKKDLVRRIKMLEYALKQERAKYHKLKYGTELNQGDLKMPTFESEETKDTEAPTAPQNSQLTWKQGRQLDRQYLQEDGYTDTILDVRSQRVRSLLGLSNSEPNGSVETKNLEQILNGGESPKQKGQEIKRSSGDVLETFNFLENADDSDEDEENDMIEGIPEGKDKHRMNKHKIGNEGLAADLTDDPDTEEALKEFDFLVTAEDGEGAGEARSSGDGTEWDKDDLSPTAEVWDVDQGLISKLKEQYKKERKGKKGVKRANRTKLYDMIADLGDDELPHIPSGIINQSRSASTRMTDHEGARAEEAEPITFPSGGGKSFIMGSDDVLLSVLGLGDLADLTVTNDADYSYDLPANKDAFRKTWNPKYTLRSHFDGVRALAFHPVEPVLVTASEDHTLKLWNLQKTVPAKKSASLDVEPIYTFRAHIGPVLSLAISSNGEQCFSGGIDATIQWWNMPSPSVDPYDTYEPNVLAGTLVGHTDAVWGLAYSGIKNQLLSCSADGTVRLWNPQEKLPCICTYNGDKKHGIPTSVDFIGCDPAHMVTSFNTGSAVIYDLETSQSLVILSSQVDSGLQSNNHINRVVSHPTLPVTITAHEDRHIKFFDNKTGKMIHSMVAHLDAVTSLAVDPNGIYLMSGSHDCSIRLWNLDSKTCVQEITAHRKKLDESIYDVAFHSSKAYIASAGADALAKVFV

Assay [3] addresses T3, Flag-tagged STRN3 R176A/E185A (human) (UniProt Q13033).
T3 sequence: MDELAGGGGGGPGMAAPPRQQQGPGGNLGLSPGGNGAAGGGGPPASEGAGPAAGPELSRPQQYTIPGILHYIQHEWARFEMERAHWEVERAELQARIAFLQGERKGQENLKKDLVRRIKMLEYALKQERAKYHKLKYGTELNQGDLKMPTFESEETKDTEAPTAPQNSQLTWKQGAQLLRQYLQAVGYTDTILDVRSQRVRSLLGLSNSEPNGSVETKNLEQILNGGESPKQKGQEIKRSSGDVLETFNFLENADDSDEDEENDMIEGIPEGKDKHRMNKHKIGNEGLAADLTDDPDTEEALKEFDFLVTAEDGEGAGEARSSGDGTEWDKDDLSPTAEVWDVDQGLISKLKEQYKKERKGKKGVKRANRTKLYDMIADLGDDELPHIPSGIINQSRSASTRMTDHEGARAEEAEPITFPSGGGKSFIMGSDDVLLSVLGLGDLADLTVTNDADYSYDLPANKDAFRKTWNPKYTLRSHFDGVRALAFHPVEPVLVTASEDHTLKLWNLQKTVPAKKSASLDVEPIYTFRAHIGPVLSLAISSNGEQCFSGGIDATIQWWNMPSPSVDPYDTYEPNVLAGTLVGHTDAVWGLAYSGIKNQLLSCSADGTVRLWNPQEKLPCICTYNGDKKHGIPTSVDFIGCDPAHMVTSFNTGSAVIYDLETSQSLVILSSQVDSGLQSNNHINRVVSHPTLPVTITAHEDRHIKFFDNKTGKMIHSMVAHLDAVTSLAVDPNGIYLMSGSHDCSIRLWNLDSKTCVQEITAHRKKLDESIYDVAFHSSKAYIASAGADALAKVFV

No constants are given. Whether binding was seen depends on the method and setting. In cells and extracts the contact can be indirect. Some binding calls cover weakened binding; strength is not graded here. Sequences can lack the tags named with a protein.

B1: HA-tagged SIKE1 (wildtype, in cells) (protein, UniProt Q9BRV8 1-207)
chain: MSCTIEKILTDAKTLLERLREHDAAAESLVDQSAALHRRVAAMREAGTALPDQYQEDASDMKDMSKYKPHILLSQENTQIRDLQQENRELWISLEEHQDALELIMSKYRKQMLQLMVAKKAVDAEPVLKAHQSHSAEIESQIDRICEMGEVMRKAVQVDDDQFCKIQEKLAQLELENKELRELLSISSESLQARKENSMDTASQAIK
As for B1, the values for the binding entry in assay [1], in assay [2] and in assay [3] were “binds”, “no binding” and “no binding”, respectively.
